From a compilation of properties of binary mixtures
The densities may have been worked out from excess volumes.

Experiment: xn = mol fraction of the nth substance listed

CC[n+]1ccn(C)c1.O=S(=O)([N-]S(=O)(=O)C(F)(F)F)C(F)(F)F + CCO
mass density (313.15 K, 100 kPa, x2 = 0.5505): 1347.5 kg/m3
mass density (313.15 K, 101 kPa, x2 = 0.5505): 1347.5 kg/m3

CCCC[P+](CCCC)(CCCC)CCCC.[Cl-] + O
mass density (313.15 K, 101 kPa, x1 = 0.0438): 972.3 kg/m3

CC(=O)[O-].CCCC[NH3+] + O
mass density (293.15 K, 101 kPa, x1 = 0.8972): 962.2 kg/m3
mass density (308.15 K, 101 kPa, x1 = 0.06): 1006.5 kg/m3
mass density (308.15 K, 101 kPa, x1 = 1): 950.2 kg/m3

CC[N+]1(C)CCCC1.[Br-] + OCC(O)CO
mass density (313.15 K, 100 kPa, x1 = 0.3333): 1251.1 kg/m3

CCCC[P+](CCCC)(CCCC)CCCC.[Br-] + O
mass density (298.15 K, 100 kPa, x1 = 0.031): 1042.7 kg/m3
mass density (298.15 K, 100 kPa, x1 = 0.062): 1055.3 kg/m3
mass density (298.15 K, 100 kPa, x1 = 0.08): 1059.3 kg/m3
mass density (298.15 K, 100 kPa, x1 = 0.11): 1063.1 kg/m3
mass density (298.15 K, 100 kPa, x1 = 0.119): 1064.4 kg/m3

[Cl][Zn][Cl] + CCCC[n+]1ccn(C)c1.[Cl-]
mass density (313.2 K, 101 kPa, x1 = 0.5): 1431.9 kg/m3
mass density (318.2 K, 101 kPa, x1 = 0.5): 1428.1 kg/m3
mass density (328.2 K, 101 kPa, x1 = 0.5): 1420.7 kg/m3
mass density (333.2 K, 101 kPa, x1 = 0.5): 1416.5 kg/m3
mass density (338.2 K, 101 kPa, x1 = 0.5): 1412.8 kg/m3
mass density (343.2 K, 101 kPa, x1 = 0.5): 1409.3 kg/m3

CC[n+]1ccn(C)c1.O=S(=O)([N-]S(=O)(=O)C(F)(F)F)C(F)(F)F + CC[n+]1ccn(C)c1.F[B-](F)(F)F
mass density (293.1 K, 100 kPa, x2 = 0.25): 1520 kg/m3
mass density (293.1 K, 100 kPa, x2 = 0.5): 1480 kg/m3
mass density (293.1 K, 100 kPa, x2 = 0.75): 1420 kg/m3
mass density (293.1 K, 100 kPa, x2 = 0.9): 1350 kg/m3
mass density (293.1 K, 100 kPa, x2 = 0.95): 1300 kg/m3

CC(O)C(=O)[O-].CC[n+]1ccn(C)c1 + O
mass density (298.15 K, 101 kPa, x2 = 0.0842): 1190.6 kg/m3
mass density (298.15 K, 101 kPa, x2 = 0.1046): 1191.8 kg/m3
mass density (298.15 K, 101 kPa, x2 = 0.1887): 1197.3 kg/m3

CCCCC(CC)COC(=O)CC(C(=O)OCC(CC)CCCC)S(=O)(=O)[O-].CCCC[n+]1ccn(C)c1 (centres undefined) + O
mass density (313.15 K, 99.6 kPa, x1 = 0.8695): 1073 kg/m3
mass density (323.15 K, 99.6 kPa, x1 = 0.8695): 1066 kg/m3
mass density (333.15 K, 99.6 kPa, x1 = 0.8695): 1058 kg/m3

CCCC[P+](CCCC)(CCCC)CCCC.[Cl-] + CCC(=O)O
mass density (298 K, 100 kPa, x1 = 0.5): 972 kg/m3

CCCC[NH3+].O=S(=O)([N-]S(=O)(=O)C(F)(F)F)C(F)(F)F + CC[n+]1ccn(C)c1.O=S(=O)([N-]S(=O)(=O)C(F)(F)F)C(F)(F)F
mass density (298 K, 100 kPa, x1 = 0.3): 1501 kg/m3

CC[n+]1ccc(C)cc1.O=S(=O)([N-]S(=O)(=O)C(F)(F)F)C(F)(F)F + O
mass density (298.15 K, 101.3 kPa, x2 = 0.144): 1479.5 kg/m3
mass density (303.15 K, 101.3 kPa, x2 = 0.144): 1474.5 kg/m3

CCCC[n+]1ccn(C)c1.F[P-](F)(F)(F)(F)F + CCCC[n+]1ccn(C)c1.O=S(=O)([N-]S(=O)(=O)C(F)(F)F)C(F)(F)F
mass density (313.15 K, 100 kPa, x1 = 0.25): 1408.7 kg/m3

CCCCCCCC[n+]1ccn(C)c1.F[P-](F)(F)(F)(F)F + O
mass density (298 K, 101 kPa, x2 = 0.113): 1160 kg/m3

CCCC[n+]1ccn(C)c1.COS(=O)(=O)[O-] + C1CCCCC1
mass density (298.15 K, 101 kPa, x2 = 0.039): 1204.5 kg/m3

[Cl][Al]([Cl])[Cl] + CC[n+]1ccn(C)c1.[Cl-]
mass density (298.15 K, 100 kPa, x2 = 0.38): 1350 kg/m3
mass density (303.15 K, 100 kPa, x2 = 0.38): 1345.6 kg/m3
mass density (303.15 K, 101 kPa, x1 = 0.5): 1280 kg/m3
mass density (303.15 K, 101 kPa, x1 = 0.57): 1314 kg/m3
mass density (303.15 K, 101 kPa, x1 = 0.6): 1336 kg/m3
mass density (303.15 K, 101 kPa, x1 = 0.67): 1376 kg/m3
mass density (313.15 K, 100 kPa, x2 = 0.38): 1336.7 kg/m3
mass density (318.15 K, 100 kPa, x2 = 0.38): 1332.4 kg/m3
